# Laboratory results: PubChem BioAssay AID624296 (National Center for Advancing Translational Sciences (NCATS), 2012)
# Screen size: about 350,000 compounds; about 9,900 (2.8%) were called active. The shares of active, inactive and inconclusive entries below differ from those in the screen. The call rests on the fitted dose curve; in most records, active means well fitted activation curve with a large enough effect; inconclusive means small, poorly fitted or top-dose-only effect; inactive means no such curve, though single readings can be large or run the other way. Potencies of inconclusive entries are left out as doubtful fits.
# Test: A quantitative high throughput screen for small molecules that induce DNA re-replication in MCF 10a normal breast cells. Further: nearly all actives have a fitted effect of over 50% in size. On activity, positive = re-replication: % of control where 0% means no effect.
# Details: MCF 10A DNA re-replication, Hoechst nuclear intensity, 48 h; activity, positive = re-replication: at 46.1 µM (top of the series)
# Potency means the concentration at half of the fitted maximal effect; tags describe the fitted curve by direction and shape.
SMILES,Potency,"activity, positive = re-replication"
COC(=O)c1ccc(COc2ccccc2/C=C(\C#N)C(=O)Nc2ccc(C)cc2)cc1,"inconclusive [activator, partial curve, poor fit]",
COC(=O)c1ccc(Nc2nnc(-c3ccc(C)c(S(=O)(=O)NCC4CCCO4)c3)c3ccccc23)cc1 (centres undefined),"inconclusive [activator, partial curve, poor fit]",
Cc1cc(NC(=O)CSc2ncnc3ccccc23)no1,,inactive: 2.31%
COc1ccc(C2=CC(=O)OC(C)(c3ccccc3)O2)cc1 (centres undefined),"inconclusive [activator, single point]",
CCn1c(C)cc(C(=O)CSc2nnnn2C2CCCC2)c1C,"inconclusive [activator, single point]",
CCOC(=O)N1CCN(C(=O)C2CCC(=O)N(CCCc3ccccc3)C2)CC1 (centres undefined),,inactive: -3.24%
Cc1nn(Cc2c(Cl)cccc2Cl)c(C)c1C(=O)NCc1ccc(C)n1C,"inconclusive [activator, single point]",
S=C1NCN(Cc2ccccc2)CN1,"inconclusive [activator, partial curve, poor fit]",
CCC(C)C(=O)NCCc1ccc(S(N)(=O)=O)cc1 (centres undefined),,inactive: -5.54%
Cc1ccc(NS(=O)(=O)Cc2ccccc2)cc1Cl,,inactive: 2.57%
Cc1ccc(C(=O)Nc2cccnc2)cc1S(=O)(=O)N1CCCCCC1,,inactive: -2.18%
O=C(Nc1nnc(-c2ccccc2)o1)c1cc(Cl)sc1Cl,"inconclusive [activator, full curve]",
Cc1cc2nc(N=C(N)N)nc(C)c2cc1C,"inconclusive [activator, partial curve, poor fit]",
Cc1nc(SCc2ccc(OCCC(C)C)cc2)n[nH]1,,inactive: 12.6%
O=C(O)CCn1cc(-c2ccc(Cl)cc2)nc1-c1ccc(Cl)nc1,"inconclusive [activator, partial curve]",
Cc1cc(C)cc(NC(=O)C(=O)NCCCN2CCCC2=O)c1,"inconclusive [activator, partial curve, poor fit]",
O=C(O)c1ccccc1NC(c1ccccc1)c1ccc2cccnc2c1O (centres undefined),"inconclusive [activator, single point]",
O=C(NCC(c1ccco1)N1CCc2ccccc2C1)C(=O)Nc1ccc(F)cc1F (centres undefined),,inactive: 17.4%
COc1ccccc1Nc1nc(-c2sc(NC(=O)c3ccco3)nc2C)cs1,"inconclusive [activator, full curve, poor fit]",
COc1cccc(OCCCn2cc(/C=C3/C(=N)N4C=C(C)SC4=NC3=O)c3ccccc32)c1,active: 8.2 µM,
C=CC[C@@H]1C=C[C@H](O/N=C/c2ccc(C(=O)N3[C@H](c4ccc(C)cc4)[C@@H](C)CC[C@H]3C(=O)OC)cc2)[C@@H](CO)O1,"inconclusive [activator, single point]",
COc1ccccc1NC(=O)CCCCCN1C(=O)c2cccc([N+](=O)[O-])c2C1=O,active: 0.92 µM,
Cc1ccccc1NC(=O)c1cccc(OCc2c(C)noc2C)c1,,inactive: -12.1%

SMILES,Potency,"activity, positive = re-replication"
Cc1ccc(C(=O)Nc2ncc([N+](=O)[O-])s2)cc1,,inactive: -5.6%
Cc1cc(C)c(NC(=O)CN(C)CC(=O)Nc2cccc(S(=O)(=O)N(C)c3ccccc3)c2)c(C)c1,"inconclusive [activator, single point]",
Cc1cc(C)cc(NC(=O)c2ccc(CSc3nnc(C)s3)cc2)c1,"inconclusive [activator, partial curve, poor fit]",
Cc1ccc(C)c(SCC(=O)OCC(=O)Nc2ncc(C(F)(F)F)cc2Cl)c1,"inconclusive [activator, partial curve, poor fit]",
CC(=O)CC(=O)NC(=NC1CCCCC1)Nc1nc(C)cc(C)n1,"inconclusive [activator, partial curve, poor fit]",
CCCCCOP(=O)(OCCCCC)C1(NS(=O)(=O)c2ccccc2)C=CC(=O)c2ccccc21 (centres undefined),"inconclusive [activator, single point]",
CC(C)=CCCC(C)CN1CCC(N2CCC(C(=O)N3CCCC3)CC2)CC1 (centres undefined),"inconclusive [activator, single point]",
Cc1noc(C)c1CSc1ncnc2sc3c(c12)CCCCC3,"inconclusive [activator, single point]",
COc1cc(C(=O)NNc2nc3cc4c(cc3s2)OCO4)cc(OC)c1OC,"inconclusive [activator, partial curve, poor fit]",
COc1cccc(CC2(CO)CCCN(Cc3ccc(OC)c(C)c3OC)C2)c1 (centres undefined),"inconclusive [activator, single point]",
Cc1cc(C)cc(N(CCC(=O)O)S(=O)(=O)c2ccc3ccccc3c2)c1,active: 8.2 µM,
O=C(O)Cc1sc(Nc2cccc3ccccc23)nc1-c1ccccc1,,inactive: -2.3%
CCCn1c(SCC(=O)NC2CCC(C)CC2)n[nH]c1=O (centres undefined),,inactive: 1.86%
CCc1ccc(CNc2ccc3c(c2)ncn3CC)cc1,"inconclusive [activator, partial curve, poor fit]",
N#Cc1c(NC(=O)C2CC=CCC2C(=O)O)sc2c1CCCCCC2 (centres undefined),"inconclusive [activator, single point]",
COc1ccc(C(=O)Nc2ccccc2N2CCCCC2)cc1[N+](=O)[O-],"inconclusive [activator, partial curve, poor fit]",
COc1ccc2c(Cl)c(C(=O)N/N=C/c3cccnc3)sc2c1,,inactive: -2.43%
C=CCn1c(SCc2ccc(C(=O)Nc3nccs3)cc2)nnc1-c1ccc(C)c(Cl)c1,active: 10.3 µM,
CCS(=O)(=O)CCSC1OC(COC(C)=O)C(OC(C)=O)C(OC(C)=O)C1OC(C)=O (centres undefined),,inactive: -3.22%
Cc1ccc(NCCC(=O)c2cccc([N+](=O)[O-])c2)cc1,active: 6.51 µM,
COc1ccc(C)cc1NC(=O)C(OC(=O)c1cccc(S(=O)(=O)N(C)c2ccccc2)c1)c1ccccc1 (centres undefined),"inconclusive [activator, partial curve, poor fit]",
CCN(CC(=O)Nc1cc(Cl)ccc1C)C(=O)c1nc2nc(C)cc(C)n2n1,"inconclusive [activator, single point]",
CN(C)c1ccc(NC(=O)Nc2csc3ccccc23)cc1,"inconclusive [activator, partial curve, poor fit]",

SMILES,Potency,"activity, positive = re-replication"
CC(=O)Nc1ccc(NC(=O)Nc2ccccc2)cc1,,inactive: 0.11%
Cc1ccc(CNC(=O)N2CCN(c3ccc(C)cc3)CC2)cc1,"inconclusive [activator, partial curve, poor fit]",
Cc1cc(C(F)(F)F)c(C#N)c(SCC(=O)Nc2nc3ccccc3s2)n1,"inconclusive [activator, single point]",
CCCN(CC(=O)Nc1ccccc1OC)C(=O)CNC(=O)c1ccc(C)s1,"inconclusive [activator, partial curve, poor fit]",
CCCCn1c(=O)cc(O)c2ccccc21,,inactive: -1.08%
Cc1c(C(=O)Nc2ccncc2)sc2nc(-c3ccccc3)cn12,"inconclusive [activator, single point]",
CCN(CC)S(=O)(=O)c1ccc2[nH]c(=O)cc(C(=O)NCC3CCCO3)c2c1 (centres undefined),"inconclusive [activator, full curve, poor fit]",
O=C(NCC1CCOCC1)c1cc(COc2cccc(C(F)(F)F)c2)on1,,inactive: 13.6%
CCOc1ccc2oc(C(=O)NNC(=O)c3ccccc3O)c(C)c2c1,"inconclusive [activator, single point]",
O=C(Oc1c(-c2ccccc2)oc2ccccc2c1=O)c1ccccc1,"inconclusive [activator, partial curve, poor fit]",
CCN1CCN(c2cc(C)c3cc(NC(=S)N4CCCC(C)C4)ccc3n2)CC1 (centres undefined),,inactive: 4.83%
Oc1ccc(F)c2cccnc12,"inconclusive [activator, single point]",
CCn1nc(-c2ccccc2)c2nc3ccccc3nc21,"inconclusive [activator, partial curve, poor fit]",
Cc1cc(NCCCN2CCOCC2)n2nc(C)c(-c3ccccc3)c2n1,,inactive: -6.94%
C=CCn1c(SCC(=O)O)nnc1-c1ccc(C(C)(C)C)cc1,,inactive: 4.53%
CCc1nnc(NC(=O)/C=C/c2cccs2)s1,,inactive: -5.06%
COC1CCCN(C(=O)c2cccc(OC3CCN(S(=O)(=O)N(C)C)CC3)c2)C1 (centres undefined),"inconclusive [activator, single point]",
C=CCn1cc(/C=C/c2cc[n+](C)cc2)c2ccccc21,"inconclusive [activator, partial curve, poor fit]",
CC(C)C(=O)NCCc1nc2ccccc2n1CCCOc1ccc(Cl)cc1,"inconclusive [activator, partial curve, poor fit]",
COc1ccc(C(=O)N2CCN(CCc3ccccc3)CC2)cc1[N+](=O)[O-],"inconclusive [activator, single point]",
CN(Cc1ccccc1F)Cc1cc(=O)oc2cc(O)c(Cl)cc12,active: 5.8 µM,
Cc1ccccc1OCC(=O)N/N=C/c1cccn1C,"inconclusive [activator, full curve, poor fit]",
COc1ccc(OC)c(N2C(N)=C(C#N)C(c3ccc(OC)c(O)c3)C3=C2CC(C)(C)CC3=O)c1 (centres undefined),"inconclusive [activator, full curve, poor fit]",
